From the supplement of paper PMC7826260
The list shows a part of the results. Cleavage of a single-stranded DNA pool by Rep nickase domains was read by sequencing (3 µM enzyme, 1 h, 37 °C); shown is the middle of each 90-letter strand. A value is the log2 ratio of uncut reads to the pool without enzyme; strong cutting gives strongly negative numbers. There is no active / inactive call. Shares of all reads are compared; values above 0 arise when much of the pool is cut.

System: T1, Rep nickase domain of tomato golden mosaic virus
T1 sequence (residues 1-124, tag not shown): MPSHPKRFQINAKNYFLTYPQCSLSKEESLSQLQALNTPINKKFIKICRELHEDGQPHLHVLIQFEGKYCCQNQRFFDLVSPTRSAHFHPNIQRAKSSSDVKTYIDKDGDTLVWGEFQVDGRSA
Test: uncleaved DNA left, log2 of reads against the no-enzyme library (log2 ratio); higher = less cleavage (more negative = more Rep cleavage of the k-mer); sequences stand for … in CTCGTCCG…ACCGGAGA
Method: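 A pool of 90-nt single-stranded DNAs with seven random bases just before the constant AC of the nick site (name = the seven bases) was cut by 3 µM recombinant His6-SUMO-tagged Rep nickase domain (300 nM DNA, 50 mM HEPES pH 8.0, 50 mM NaCl, 1 mM MnCl2, 1 h, 37 °C, three replicates). Uncut DNA was amplified and sequenced.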

| Sequence | uncleaved DNA left (log2) |
| --- | --- |
| CCGTACC | -0.209 |
| GTGTTCG | -0.124 |
| GTCTAAT | 0.144 |
| ATTATCA | -0.0187 |
| CTTATTT | -0.052 |
| CGGTTCT | -0.101 |
| GCCCCCG | -0.135 |
| TCTGATG | 0.0555 |
| CGGCACC | 0.00228 |
| CACTTCC | 0.00284 |
| CTCCATA | -0.27 |
| GGACCAG | -0.102 |
| AGCAGGC | -0.0227 |
| CTTGATC | -0.057 |
| ATCCATC | 0.0482 |
| GGGTATG | -0.0872 |
| ATCAATA | 0.159 |
| AATGTCC | 0.0566 |
| CCCGTGG | -0.0487 |
| AGAAGTC | -0.053 |

| Sequence | uncleaved DNA left (log2) |
| --- | --- |
| TGAATAC | 0.124 |
| TGGGGGT | 0.0158 |
| GCAGCGT | -0.0137 |
| AAGATAT | 0.101 |
| AATTGCA | 0.00518 |
| TAGCTAT | -0.0763 |
| AAATGGA | -0.00883 |
| CACATAC | -0.0977 |
| GCTGAAC | 0.131 |
| CTACTAG | -0.00782 |
| AACCCGC | -0.341 |
| GGAGTCC | 0.00221 |
| TAAGCGA | -0.0372 |
| TTTATAA | -0.00766 |
| TGTTGGG | 0.0869 |
| ATAAATC | 0.14 |
| CCTCATA | 0.0239 |
| AATTATG | 0.00927 |
| CGATCCT | -0.336 |
| TTTCTAG | 0.13 |
